Our source for the IC50 values is US9474759B2 (priority 2011, dated 2016).

The target in this assay is norovirus 3CLpro (Norovirus, UniProt Q83883). The experiment in a line: biochemical.
In turn, `CCCCNC(=O)C(=O)[C@H](CC1CCNC1=O)NC(=O)[C@H](CC(C)C)NC(=O)OCc1ccccc1` (stereo partly drawn) [Compound 6c] displayed an IC50 of 4.1 µM.
In turn, `CC(C)C[C@H](NC(=O)OCc1ccccc1)C(=O)N[C@@H](CC1CCNC1=O)C(O)C(=O)NC(C)C` (stereo partly drawn) [Compound 5a] registered an IC50 of 45.3 µM. Compared with the last compound, the IC50 is about 11-fold higher.
On to `CC(C)C[C@H](NC(=O)OCc1ccccc1)C(=O)N[C@@H](CC1CCNC1=O)C(=O)C(=O)NCc1ccccc1` (stereo partly drawn) [Compound 6f], for which inhibition was half-maximal at 7.1 µM (IC50).
As for `CCCCNC(=O)C(O)[C@H](CC1CCNC1=O)NC(=O)[C@H](CC(C)C)NC(=O)OCc1ccccc1` (stereo partly drawn) [Compound 5c], the IC50 is > 50 µM.
With `CC(C)C[C@H](NC(=O)OCc1ccccc1)C(=O)N[C@@H](CC1CCNC1=O)C(O)C(=O)NCc1ccccc1` (stereo partly drawn) [Compound 5f], the 50% inhibitory concentration (IC50) was > 50 µM.
For `CC(C)C[C@H](NC(=O)OCc1ccccc1)C(=O)N[C@@H](CC1CCNC1=O)C(=O)C(=O)NC1CC1` (stereo partly drawn) [Compound 6b], the IC50 stood at 3.4 µM.
The same measure for `CC(C)C[C@H](NC(=O)OCc1ccccc1)C(=O)N[C@@H](CC1CCNC1=O)C(=O)C(=O)NC(C)(C)C` (stereo partly drawn) [Compound 6g]: 2.8 µM; for `CC(C)C[C@H](NC(=O)OCc1ccccc1)C(=O)N[C@@H](CC1CCNC1=O)C(O)c1nccs1` (stereo partly drawn) [Compound 7b]: 12.3 µM.
`CC(C)C[C@H](NC(=O)OCc1ccccc1)C(=O)N[C@@H](CC1CCNC1=O)C(O)C(=O)NC1CCCCC1` (stereo partly drawn) [Compound 5e]: the IC50 is > 50 µM.
For the compound `CCOC(=O)CNC(=O)C(=O)[C@H](CC1CCNC1=O)NC(=O)[C@H](CC(C)C)NC(=O)OCc1ccccc1` (stereo partly drawn) [Compound 6d], the IC50 was found to be 2.1 µM. That is a single-digit micromolar value.
Turning to `CC(C)C[C@H](NC(=O)OCc1ccccc1)C(=O)N[C@@H](CC1CCNC1=O)C(O)C(=O)NC(C)(C)C` (stereo partly drawn) [Compound 5g], the IC50 was > 50 µM.
For `CCOC(=O)CNC(=O)C(O)[C@H](CC1CCNC1=O)NC(=O)[C@H](CC(C)C)NC(=O)OCc1ccccc1` (stereo partly drawn) [Compound 5d], the IC50 was > 50 µM.
In turn, `CC(C)C[C@H](NC(=O)OCc1ccccc1)C(=O)N[C@@H](CC1CCNC1=O)C(=O)c1ncco1` (stereo partly drawn) [Compound 8a] had an IC50 of 2.3 µM.
The same measure for `CC(C)C[C@H](NC(=O)OCc1ccccc1)C(=O)N[C@@H](CC1CCNC1=O)C(=O)c1nccs1` (stereo partly drawn) [Compound 8b]: 8.8 µM.
With `CC(C)C[C@H](NC(=O)OCc1ccccc1)C(=O)N[C@@H](CC1CCNC1=O)C(=O)C(=O)NC1CCCCC1` (stereo partly drawn) [Compound 6e], the IC50 is 3.5 µM.
In turn, `CC(C)NC(=O)C(O)[C@H](CC1CCNC1=O)NC(=O)[C@H](Cc1ccccc1)NC(=O)OCc1ccccc1` (stereo partly drawn) [Compound 5h] showed an IC50 of 23.1 µM.
The same measure for `CC(C)C[C@H](NC(=O)OCc1ccccc1)C(=O)N[C@@H](CC1CCNC1=O)C(O)C(=O)NC1CC1` (stereo partly drawn) [Compound 5b]: > 50 µM; for `CC(C)NC(=O)C(=O)[C@H](CC1CCNC1=O)NC(=O)[C@H](Cc1ccccc1)NC(=O)OCc1ccccc1` (stereo partly drawn) [Compound 6h]: 21.5 µM.
